Measured values as given in the supplement of paper PMC12632987.
Over roughly 4,500 sequences, “median log2 fold change of GCK-ALFA target abundance (FLAG IP / Myc IP barcode read proportion)” has its median near 0.078; the lowest 2% begin near -0.6. The list shows a part of the results.

B1: GBRAP_160_4617 (protein)
chain: SSKIEELKKFVKEEFEEAKEMIEGETPEQRAAIVDVTIGEIILEAEELEVVSDESLEKIDEIGDELVETILENPDLTEEEVKELIDEAEKKIIEIIEEDE
B2: GBRAP_125_3003 (protein)
chain: AKEEAARDMREIALAAGFSESLAEELARLVLEGSVKNTLAAFALALGNEEAAELIQKLTEEEAIEVVKRLAEIARKEGKMSEEEMAKKLLEIAKEALKKQ
B3: GBRAP_184_5029 (protein)
chain: KVVEREIEAENLEELEKKLEELRKEVANSGATLIVLLDIKNPTEEMVRTALERLGEIKREGYASDVVVGFKRILSEELIDIALETADEEGVKVVLPISDE
B4: GBRAP_160_4772 (protein)
chain: SEELEKLKKEIKEIFDEHIKLLKEVPQEEALTVLRGALGEVRMEVFSSDAVSEELEEEIDKILDEAEKEAEKNKNAPVEEFIKILKEAEEKILALIESEI
B5: GBRAP_128_3466 (protein)
chain: STEEAVAWAREKMEAMKEADDEEARRLAEELAERLLTLSLEEVEAVVEEILKQLPKLSAKKLEILADVLDAARPRLSPEKAALVAEVISEALLLAEEKEE
B6: GBRAP_11_2909 (protein)
chain: KKENLEKLAKLLEELVKLLEKLIKEGVEDKELLEKALKVAKEALELAKKNLDEASVELAEELVELLEKAIEDPEKAKEYVEKALAVARVLLGEVLLEIEE
B7: GBRAP_78_6639 (protein)
chain: SIEEKLEEALELVDEAAKLALTLPPEIANEILDELVDAASHLEEAIEKGGDLEEVKEALKELKEALELIKKHNDPRLKPLEEKVKKAIELLEEIIKELEK
B8: GBRAP_83_6883 (protein)
chain: KEKIVVAGPADHIEELVEIAIDLTKNEGYEVEIEVLVRPEGIEKVLEGVERLAKAGVNTKLIIHGEGVTKEQAEELEARIKEIAKKYGVKIEVEVILDEP
B9: GBRAP_128_3555 (protein)
chain: STEEVVEEAEELLEKIKESDEEEAREYARELVRLLASVDEESREAIVKVILERLPELTVEQLEILADVFREERPKVDPDVANALAEIEVEALNVALEKEE
B10: GBRAP_184_5101 (protein)
chain: KTYEAEVEADTAEEAKAKIAEAVAEAAAAGANLNILLKGKGLSTEEIVDIVRYLGRAAKEAGIPAVTLGIDTPLSEEDADKVIAAADEAGIRVVLALSEE
B11: GBRAP_52_6036 (protein)
chain: SRERMRRLAQEIVDLAKAGDLEGARALAREAVETLSEEELRLLGEELARLAREAAPEDLDAIMEVAFILADALVEGGYDEVLADDLLARVAAAAVENLQA
B12: GBRAP_128_3422 (protein)
chain: SRAAAVARARALLEAMKTADDATAAALADELAALFASADLETAEAIAEVIRAEIPKLTAKQLDILADAFRAALPKLTPEKANIAADVIVDLLNEREELEE
B13: GBRAP_166_4924 (protein)
chain: STEELVAEARARLEAVIAEGRADPSLTPGQITAAMAYETAKLLESVEDEETKLAIVEAGLKLAKEAGLDPRRLATLTASLYGFSDEEIDKIDEITEKILA
B14: GBRAP_14_3773 (protein)
chain: MEEKIKILKETTEEAAALLAELDPALAEEYRRALEEVREKTIEEIKKTGNAIEAADRGREEAVARIAEITADRPAELRAQAEAIVAVLFGQAILEIDELE
B15: GBRAP_139_3750 (protein)
chain: SALEEKIKEAVELAKKIPEDPEGSIKAIADLLVSVNEEDAEKIARAIAEELASLPFDEFEAIMDKLIETLKTEYNNEDLADIVEAERNRQLAKIAVEEEK
B16: GBRAP_52_5974 (protein)
chain: MEEEMRKLAKEIVALILAGDEAGARALLEEIAATKTEEEITLLFKELAKLAKTATPEERDAIVEAALLAEDIALAAGFDEAVMDSNLADVVKAAVDAEKA
B17: GBRAP_160_4481 (protein)
chain: MEKVKKAAEDLREDVKKTLEESKDESPEQVATAVAVTLGSDLMEYESEGLINDEQADIVIEAMDEIRELGKEKKDESVEEVIKELEEIVEKTVEKILEAA
B18: GBRAP_125_3120 (protein)
chain: HMEQLLEDLAIVLRALGFDEEDIEEALELARRHGLKGTMIAAAMALGYEEIADLIEKLSEEDVAEAVAELAAEIKANPDLTPEEVKERFKEILEKKLAAQ
B19: GBRAP_78_6654 (protein)
chain: EVEELIDKAMEHLDKAAKLTKKLDEESRNELLDLLVEAASHILLSEENGFDLEELKEALEYLKKALEYAKSLNTPVAKEIAEELEKAIEYLEKAIKLLEE
B20: GBRAP_26_5422 (protein)
chain: LDEKIDQMRDDLDALAKEVLDPETAAAVTAEADTILLELEEELEKNKNNLELQEKALEEALKEFEKALDELGVSEEAKKKLVAKFKEGLKKILEYLKKQQ
B21: GBRAP_52_6363 (protein)
chain: SLEEALKKLREAVEAELEGKEEEAEKILKEIVENFSEEEILAAVERLAEEVQTKSLEEAEAFLETAIRLADIMLEAGKDEAVADEIEAIAARAYMAVLEK
B22: GBRAP_184_5026 (protein)
chain: TVIEEEIVASDLAELEAKLAALAARVAGSGADLVVDLDLENPTEEKVRTAIAGLGAIKAAGNVSRVTVGFRNELSEELEEVALEAGDENGVNVVLPISDE
B23: GBRAP_125_3114 (protein)
chain: SMEEALEDLATVMRALGFDDEDIEEALELAKKFGLKQTMIAIFLAEGWEENAELAEKLTEEQVLRALAELAAWIRAHPDATPEEVAARAKEILERLLAEQ
B24: GBRAP_52_6140 (protein)
chain: MREELRKKAREILEKVKAGKLEEAKKIAKEIAEELNDEELKLFADEFAEVIRELRPEEIDYAAKALEILEDALEEAGRDEEIISYLRGKSTRAMYEVEQR
B25: GBRAP_11_2656 (protein)
chain: KKEAYKKAAELAEEAAKALQKLIEEGVDDEELIEKLRKLIEELKKLAEEELDEADKKEVEVVVELFEEFLADEENRLQLAEELLAGLRVLAGNFQLKADE
B26: GBRAP_128_3211 (protein)
chain: SVEEVREEVRRLLEEIKKADPETAKKIAEELAELIRNSSVEEAEAAREVIEELAPELSEEDLEILMEAFEKEARKTSDEISLVLLDISIILGSEIIEKEE
B27: GBRAP_53_6389 (protein)
chain: SEEELRRLIEELERLIEELKTADPERAVELARRAVELLLELAKLGLPEEELVRLVKRFAEAAAPKPELRPVLVELARRLAELGREDAAAEVAEALVEELE
B28: GBRAP_125_3041 (protein)
chain: SLEEAIEALAALAKIFGYSEEEVAELAELARKYGVKGALIALLLAEGLEELAELVAKLSDEAVKEVLRKFLAWVKAHPDITREEAVKKLRELVEEALKKE
B29: GBRAP_160_4818 (protein)
chain: SEKVKEILKDIDEETELVLSYVDTESVAQVTTLFEGEFGSIILELEEEEWLSDEAIDKIREIVDDTVAYMRANPDLSPEEIKELIKKAAEEIKKIIEEDD

Molecular target: GABARAP, O95166
Sequence (O95166 whole entry, the tested form may be a part): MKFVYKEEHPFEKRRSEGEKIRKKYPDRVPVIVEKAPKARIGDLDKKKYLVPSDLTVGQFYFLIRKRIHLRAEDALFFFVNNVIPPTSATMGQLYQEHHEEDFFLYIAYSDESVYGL
Experiment: median log2 fold change of GCK-ALFA target abundance (FLAG IP / Myc IP barcode read proportion) (log2 ratio); each designed protein is fused to an ALFA-tag nanobody in HEK293 cells to bring the named protein to FLAG-tagged glucokinase (GCK); Myc marks an untargeted standard; higher = target protein stabilised (more abundant)
Details: target protein: 3xFLAG-MCP-GCK-ALFA reporter; HEK293 landing pad (RPLP)
Summary of the method: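 HEK293 landing-pad cells received a recombined binder library fused to the ALFA nanobody and were induced with 2 μg mL^−1 doxycycline, then transfected with a plasmid encoding a FLAG-tagged target and a Myc-tagged standard. Lysates were collected after 48 h for anti-FLAG and anti-Myc immunoprecipitation, and the circular RNA barcodes were reverse transcribed, amplified and sequenced. Target abundance for each binder is the median log2 ratio of FLAG to Myc barcode read proportions. Barcodes had to reach a proportion of at least 10^−7 in both replicates, each binder needed at least 3 barcodes per replicate, a pseudocount of 10^−6 was applied, and the two replicates were pooled.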

Question: B1 was tested. Which “median log2 fold change” value did it give?
Answer: -0.294

Question: B2 was tested. Which “median log2 fold change” value did it give?
Answer: 0.171

Question: How did the “median log2 fold change” value turn out when B3 was run?
Answer: 0.0801

Question: How did the “median log2 fold change” value turn out when B4 was run?
Answer: 0.118

Question: For B5, which “median log2 fold change” value is on record?
Answer: 0.183

Question: For B6, which “median log2 fold change” value is on record?
Answer: 0.398

Question: Which “median log2 fold change” value does the source give for B7 here?
Answer: 0.0987

Question: For B8, which “median log2 fold change” value is on record?
Answer: 0.0991

Question: How did the “median log2 fold change” value turn out when B9 was run?
Answer: -0.0585

Question: With B10 as the binder, how does the “median log2 fold change” value read?
Answer: 0.0879

Question: How did the “median log2 fold change” value turn out when B11 was run?
Answer: -0.791

Question: For B12, which “median log2 fold change” value is on record?
Answer: -0.139

Question: For B13, which “median log2 fold change” value is on record?
Answer: 0.209

Question: For B14, which “median log2 fold change” value is on record?
Answer: 0.0144

Question: With B15 as the binder, how does the “median log2 fold change” value read?
Answer: 0.174

Question: B16 was tested. Which “median log2 fold change” value did it give?
Answer: -0.0573

Question: B17 was tested. Which “median log2 fold change” value did it give?
Answer: 0.249

Question: How did the “median log2 fold change” value turn out when B18 was run?
Answer: -0.131

Question: For B19, which “median log2 fold change” value is on record?
Answer: 0.0422

Question: How did the “median log2 fold change” value turn out when B20 was run?
Answer: 0.22

Question: B21 was tested. Which “median log2 fold change” value did it give?
Answer: 0.134

Question: Which “median log2 fold change” value does the source give for B22 here?
Answer: 0.126

Question: Which “median log2 fold change” value does the source give for B23 here?
Answer: -0.541

Question: How did the “median log2 fold change” value turn out when B24 was run?
Answer: 0.063

Question: Which “median log2 fold change” value does the source give for B25 here?
Answer: 0.336

Question: How did the “median log2 fold change” value turn out when B26 was run?
Answer: -0.219

Question: For B27, which “median log2 fold change” value is on record?
Answer: 0.0692

Question: How did the “median log2 fold change” value turn out when B28 was run?
Answer: -0.384

Question: With B29 as the binder, how does the “median log2 fold change” value read?
Answer: 0.00235
